From paper PMC4336329 (PLoS ONE, 2015)
Out of some 310,000 compounds screened, about 14,000 (4.5%) showed an effect of 50% or more. The effect is printed as a negative number. Some of the results follow.

biological target: human ether-à-go-go-related gene (hERG) potassium channel (human, UniProt Q12809); test: primary screen, population patch clamp on CHO cells stably expressing hERG
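Also: peak tail current of the secondary pulse compared with the same well before compound.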

Sequence of human ether-à-go-go-related gene (hERG) potassium channel (Q12809 whole entry, looked up): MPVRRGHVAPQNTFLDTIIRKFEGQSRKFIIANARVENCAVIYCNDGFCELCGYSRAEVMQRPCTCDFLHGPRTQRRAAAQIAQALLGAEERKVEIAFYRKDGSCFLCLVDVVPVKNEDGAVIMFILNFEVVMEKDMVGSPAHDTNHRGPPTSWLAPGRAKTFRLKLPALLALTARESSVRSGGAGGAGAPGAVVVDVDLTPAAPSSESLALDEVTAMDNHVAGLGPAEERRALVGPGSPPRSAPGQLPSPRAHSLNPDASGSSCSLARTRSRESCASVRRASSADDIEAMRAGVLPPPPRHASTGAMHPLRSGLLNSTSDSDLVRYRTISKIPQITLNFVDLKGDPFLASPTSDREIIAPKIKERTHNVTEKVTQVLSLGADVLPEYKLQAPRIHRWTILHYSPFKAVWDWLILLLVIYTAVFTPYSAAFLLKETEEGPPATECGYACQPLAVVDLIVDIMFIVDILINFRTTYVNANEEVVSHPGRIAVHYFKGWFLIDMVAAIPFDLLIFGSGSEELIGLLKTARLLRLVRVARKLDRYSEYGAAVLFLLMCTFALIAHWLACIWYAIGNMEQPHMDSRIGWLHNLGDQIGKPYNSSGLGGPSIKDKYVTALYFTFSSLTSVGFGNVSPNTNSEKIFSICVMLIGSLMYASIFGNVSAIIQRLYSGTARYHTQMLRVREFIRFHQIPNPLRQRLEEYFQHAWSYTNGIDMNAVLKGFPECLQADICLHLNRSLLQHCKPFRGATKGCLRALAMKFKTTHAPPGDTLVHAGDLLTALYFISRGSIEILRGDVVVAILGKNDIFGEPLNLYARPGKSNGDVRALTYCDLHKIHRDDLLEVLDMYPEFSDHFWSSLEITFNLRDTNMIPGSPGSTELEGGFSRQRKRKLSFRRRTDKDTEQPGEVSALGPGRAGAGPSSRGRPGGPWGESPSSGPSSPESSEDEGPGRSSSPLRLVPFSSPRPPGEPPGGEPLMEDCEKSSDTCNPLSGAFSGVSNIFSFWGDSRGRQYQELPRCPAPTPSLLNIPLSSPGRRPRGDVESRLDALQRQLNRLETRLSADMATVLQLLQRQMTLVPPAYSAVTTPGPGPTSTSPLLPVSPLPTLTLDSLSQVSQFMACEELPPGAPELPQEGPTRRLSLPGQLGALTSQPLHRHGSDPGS

SMILES | hERG current change (%, negative = inhibition) at 10uM [%]
O=C1c2ccccc2C(Nc2ccc(Cl)cn2)N1Cc1ccccc1 (centres unmarked) | -6
COc1ccc(/C=N\NC(=O)c2ccccc2Br)cc1COc1ccccc1 | -2.22
CCOC(=O)C1(CCOc2ccccc2)CCN(Cc2cccc3c2OCO3)CC1 | -64.6
Cc1ccc(CSCCNC(=O)CN(c2cc(C)ccc2C)S(C)(=O)=O)cc1 | -23.5
CCCOc1ccc(NC(=O)CNC(=O)c2cc(OC)cc(OC)c2)cc1OCCC | 9.75
COc1ccc(C(=O)NNC(=S)NC(=O)C(C)(C)C)cc1 | 13.3
Cc1ccc2nc(-c3ccc(NC(=S)NCCC(C)C)cc3)sc2c1 | -11.8
N#Cc1nc(-c2ccccc2)oc1N1CCC(C(N)=O)CC1 | 9.26
COc1ccc(Cc2nnc(N/N=C/c3ccccc3O)[nH]c2=O)cc1OC | -26.9
CCOc1cc(-c2nc(-c3cc(OC)c(OC)c(OC)c3)no2)cc(OCC)c1OCC | 15.5
c1ccc(-n2ncc3c(N4CCN(CCOc5cccc6ccccc56)CC4)ncnc32)cc1 | 13.3
O=C(COC(=O)Cc1cccs1)Nc1ccccc1Cl | 20.5
Cc1ccc(-c2nc(-c3ccccn3)no2)cc1[N+](=O)[O-] | 8.38
O=C(Nc1ccc(F)cc1F)N1CCCN(c2ccc(C(F)(F)F)cn2)CC1 | -12.4
O=C(CN1CCC(NC(=O)c2ccccc2F)CC1)Nc1ccc2c(c1)OCO2 | -41.7
O=C(O)C1CC(=O)N(CCc2ccccc2)C1 (centres unmarked) | 6.79
COc1ccc(S(=O)(=O)N2CCN(C(=O)NCc3ccc(C)cc3)CC2)cc1 | -8.22
c1ccc2c(c1)nnn2Cc1nnc2sc(-c3ccc4c(c3)OCCO4)nn12 | 2.29
COC(=O)c1sccc1NC(=S)N1CCN(c2ccccc2)CC1 | -4.15

SMILES | hERG current change (%, negative = inhibition) at 10uM [%]
O=c1[nH]c(=O)n(CCC2=CCCCC2)c(O)c1C=Nc1cccc(F)c1 | -7.11
NC(=O)C1CCN(C(=O)C2CC(=O)N(c3ccc4c(c3)OCCO4)C2)CC1 (centres unmarked) | 6.32
O=C(c1cc2ccccn2n1)N1CCN(c2cccc(C(F)(F)F)c2)CC1 | -4.52
COc1cc(NC(=O)C2CCCCN2)ccc1OCC(C)C (centres unmarked) | 9.42
CSc1cccc(NC(=O)C2CCCN(S(=O)(=O)c3ccc(F)cc3)C2)c1 (centres unmarked) | 1.19
CCOC(=O)C1CCN(S(=O)(=O)c2ccc(Br)c(OCC)c2)CC1 | -14.8
CCN1C(=O)c2cccc3c(S(=O)(=O)Nc4ccncc4)ccc1c23 | 13.3
CCC(=O)Nc1ccc(/C(C)=N/NC(=O)c2c(-c3ccccc3Cl)noc2C)cc1 | -2.91
Cc1ccc(S(=O)(=O)N(C)CC(=O)N2CCCCCCC2)cc1 | -26
CCCCOP(=O)(OCCCC)C(Nc1ccc(C(=O)OCC)cc1)c1ccncc1 (centres unmarked) | -40.7
CCN1CCN(c2nc3c(c(=O)n(C)c(=O)n3C)n2CCSc2ncccn2)CC1 | 3.51
CC1=NN(S(=O)(=O)c2ccc(C)cc2)C(=O)c2ccccc2O1 | 9.79
CCOc1ccc(C2CC(c3cccc(OC)c3)Nc3ncnn32)cc1 (centres unmarked) | -35
S=C(Nc1ccccc1Cl)N1CCCC(c2ccccc2)=N1 | -1.76
CCN(CC)C1CCN(Cc2cn[nH]c2-c2ccc(OC)c(F)c2)C1 (centres unmarked) | -23.2
CN(Cc1ccccc1)S(=O)(=O)c1ccc(Cl)c(C(=O)N2CCC2)c1 | -21.7
I.NC(Cc1ccccc1)C(O)(c1ccccc1)c1ccccc1 (centres unmarked) | -29.8
CN(C)CC(=O)c1ccc(-c2ccccc2)cc1 | -1.03
O=C(NC(Cc1c[nH]c2ccccc12)C(=O)O)c1ccc(Br)cc1 (centres unmarked) | 2.04

SMILES | hERG current change (%, negative = inhibition) at 10uM [%]
CC1CCc2nn(CC(=O)N3CCc4ccccc43)cc2C1 (centres unmarked) | -6.82
O=C(O)c1ccc(Nc2ncc([N+](=O)[O-])cc2[N+](=O)[O-])cc1 | 18.1
CCOP(=O)(OCC)c1cccc(O)c1 | 0.784
CCOC(=O)c1sc(=S)n(-c2ccc(Cl)cc2)c1C | -37.4
CCCC(C)NC(=O)Cn1c(=O)c2c(ncn2CCC(C)C)n(Cc2ccccc2)c1=O (centres unmarked) | 5.18
Cc1c[n+](CC(=O)c2ccccc2)c(C)cn1.[Br-] | 5.14
CC(C)CNS(=O)(=O)c1ccc(S(=O)(=O)N2CCC3(CC2)OCCO3)cc1.O=C(O)C(=O)O | 0.99
Cc1ccc(NC(=S)N(Cc2ccco2)C2CCN(C(C)C)CC2)cc1 | -26.5
O=C(CN1CCCN(Cc2ccc(F)cc2Cl)C1=O)NC1CCCCCCC1 | -29
COC(=O)c1cc(Br)c(=O)n(CCc2ccc(O)cc2)c1.Cl | -10
COc1ccc(CCNC(=O)CCc2ccc(S(=O)(=O)NC(C)C)cc2)cc1 | -13.1
Cc1cccc2c1cnn2C(=O)CCC(=O)N1CCC(C)CC1 | -14.1
FC(F)(F)c1ccccc1CNCCc1c[nH]c2ccccc12.O=C(O)C(=O)O | -9.6
O=C(CCCN1C(=O)c2ccccc2C1=O)NCCC1=CCCCC1 | -3.16
COc1cc(C2=NOC(C(=O)NC3CCCCC3)C2)cc(OC)c1OC (centres unmarked) | -8.08
FC(F)Sc1ccc(NC(=S)NC(c2ccccc2)c2ccccc2)cc1 | 7.76
COc1cc(/C=C2\N=C(c3c(-c4ccccc4)noc3C)OC2=O)ccc1OC(C)=O | 7.86
O=C(COc1ccccc1Cl)N1CCN(c2ccc([N+](=O)[O-])c(N3CCOCC3)c2)CC1 | -25.7
